Experimental data: patent US20180057596A1

Biological target: human IL-4Rα on TF-1 cells (human) (UniProt P24394)
Test: cell-based or functional assay

Sequence of UniProt P24394 (P24394 26-825): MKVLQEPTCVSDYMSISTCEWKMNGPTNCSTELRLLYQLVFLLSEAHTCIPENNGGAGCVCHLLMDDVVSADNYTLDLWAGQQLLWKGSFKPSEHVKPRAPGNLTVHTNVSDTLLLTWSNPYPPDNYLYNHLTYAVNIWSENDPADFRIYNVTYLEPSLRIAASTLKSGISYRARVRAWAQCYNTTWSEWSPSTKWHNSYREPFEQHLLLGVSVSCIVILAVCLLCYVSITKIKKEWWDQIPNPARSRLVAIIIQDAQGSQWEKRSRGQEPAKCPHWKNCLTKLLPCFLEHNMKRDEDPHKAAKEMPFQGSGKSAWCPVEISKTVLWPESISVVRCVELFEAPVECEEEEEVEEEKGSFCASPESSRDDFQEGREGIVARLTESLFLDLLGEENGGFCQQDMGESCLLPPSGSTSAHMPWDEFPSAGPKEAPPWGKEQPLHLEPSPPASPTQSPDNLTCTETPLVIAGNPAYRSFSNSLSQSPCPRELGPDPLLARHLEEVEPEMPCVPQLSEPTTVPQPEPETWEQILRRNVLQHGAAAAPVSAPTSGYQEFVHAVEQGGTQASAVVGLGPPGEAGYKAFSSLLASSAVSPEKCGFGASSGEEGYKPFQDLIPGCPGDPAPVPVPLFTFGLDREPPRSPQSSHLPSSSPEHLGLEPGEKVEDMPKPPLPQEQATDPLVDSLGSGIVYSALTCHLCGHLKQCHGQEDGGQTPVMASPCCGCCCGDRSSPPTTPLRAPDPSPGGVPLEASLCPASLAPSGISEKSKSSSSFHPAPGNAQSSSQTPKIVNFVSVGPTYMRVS

B1: 12B5 (antibody, from another filing, V domains shown)
VH: EVQLVQSGGGLVHPGGSLRLSCAGSGFTFSRNAMFWVRQAPGKGLEWVSGIGTGGATNYADSVKGRFTISRDNAKNSLYLQMNSLRAEDMAVYYCARGRYYFDYWGQGTLVTVSS
VL: [about 100 residues left out]
IC50 (pM), IL-4 induced TF-1 cell proliferation: 42.7 pM
IC50 (pM), IL-13 induced TF-1 cell proliferation: 79.1 pM
